Here are results for 89 compounds from PubChem BioAssay AID463173 (ICCB-Longwood Screening Facility, Harvard Medical School, 2010).

The whole screen tested about 52,000 compounds, of which about 1,700 (3.3%) were called active. No stated cut-off is given here; in the data, active means survival mostly below about 52% (no sharp cut-off); inactive means mostly above about 56%. The list shows a part of the results.

The subject of this experiment is Wild type. As to the kind of experiment: growth inhibition of S. aureus wild type versus tarO mutant, primary screen, teichoic acid synthesis inhibitors, RN4220, OD600 (AID 463173). The following applies: S. aureus RN4220 wild type/DeltatarO growth, OD600, 18 h, hits give low values, screened at 18.75 µg/mL (by protocol).
For `Cc1[nH]c(=O)[nH]c(=O)c1S(=O)(=O)N1CCN(c2ccccc2Cl)CC1`, the survival was inactive: 67%.
With `O=C(O)CCn1c(=O)c2cccn2c2cccnc21` the figure was inactive: 85%; with `COc1ccc(S(=O)(=O)NCC(c2ccco2)N2CCN(c3ccccc3)CC2)cc1OC` (centres undefined), inactive: 80%.
`CCOC(=O)c1cc(-c2ccccc2)n(CCCC(=O)Nc2cccc(C)c2C)c1C`: the survival is inactive: 136%.
In the case of `N#Cc1ccccc1Cn1c(=O)n(-c2cccc(C(F)(F)F)c2)c(=O)c2sccc21`, the survival was inactive: 85%.
As for `CCN1CCN(C(=S)NCC2CCCO2)CC1` (centres undefined), the figure is inactive: 96%; as for `CCc1ccc(NC(=O)CC2C(=O)N(c3ccc(Cl)cc3)C(=O)N2Cc2ccco2)cc1` (centres undefined), inactive: 81%; as for `CCc1ccccc1Nc1nn2c(=O)c3ccc(C(=O)NC(C)c4ccccc4)cc3nc2s1` (centres undefined), inactive: 69%.
For `COc1cc2[nH]c(=O)n(CCCC(=O)NCc3ccc(Cl)cc3)c(=O)c2cc1OC`, the survival is inactive: 90%.
As for `Cc1ccc(NC(=O)C(=O)NCC(c2cccnc2)N2CCN(c3ccccc3F)CC2)cc1Cl` (centres undefined), the figure is inactive: 99%; as for `COc1ccccc1NC(=O)c1sc2nc(C)c(C(=O)Nc3ccc(C)cc3C)c(-c3cccs3)c2c1N`, inactive: 93%.
On to `Cc1cccc2sc(N(Cc3cccnc3)C(=O)c3cccs3)nc12`, for which the survival is inactive: 70%.
As to `CCc1ccc(CN2CCc3nc(Nc4ccccc4)ncc3C2)cc1`, the survival was inactive: 69%.
Take `CCOc1cc2[nH]c(=O)n(CCCCC(=O)N3CCN(c4cccc(Cl)c4)CC3)c(=O)c2cc1OCC`: the survival was inactive: 58%.
As for `CCOC(=O)c1c(C)[nH]c(CCC(=O)NCc2ccc(F)cc2)c1C`, the survival is inactive: 72%.
As for `CC(=O)Nc1ccc(NC(=O)c2cc3sccc3n2Cc2ccc(F)cc2)cc1`, the figure is inactive: 160%; as for `CC(C)(C)C1CCc2c(sc3nc(-c4cc5cc(Br)ccc5oc4=O)[nH]c(=O)c23)C1` (centres undefined), inactive: 86%.
As for `Cc1ccccc1OCC(=O)Nc1ccc2nc(SCC(=O)N3CCc4ccccc43)sc2c1`, the figure is inactive: 82%; as for `Cc1cccc(N2CCN(S(=O)(=O)c3ccc(-c4cc(C(F)(F)F)on4)s3)CC2)c1C`, inactive: 73%.
Consider `O=C(C1CCCN(S(=O)(=O)c2ccc(Br)s2)C1)N1CCN(c2cccc(Cl)c2)CC1` (centres undefined), for which the survival was inactive: 73%.
With `COc1cccc(CC(=O)Nc2ccc(-c3nc4ccccc4s3)cc2)c1` the figure was active: -3%; with `COc1ccccc1C1Nc2c(sc3nc(C)cc(C)c23)C(=O)N1c1ccccc1` (centres undefined), inactive: 74%.
For the compound `COc1cccc(C2C(C(=O)Nc3ccc(Cl)cc3)=C(C)Nc3nc4ccccc4n32)c1` (centres undefined), the survival was inactive: 82%.
Consider `CCC(C)Sc1oc(-c2ccco2)nc1S(=O)(=O)c1ccc(C)cc1` (centres undefined), for which the survival was active: -12%.
As for `CCc1nnc(NC(=O)CN2CCN(c3ccccc3)CC2)s1`, the figure is inactive: 98%; as for `COc1ccc(OCC(=O)Nc2cc(-c3nc4ccccc4s3)ccc2C)cc1`, inactive: 72%; as for `COc1ccc2c(c1)c1c(c(=O)n(-c3ccc(C)cc3)c(=O)n1CC(=O)NCc1ccc(C)cc1)n2C`, inactive: 70%.
As for `COc1ccc(Cl)cc1NC(=O)c1nnn(Cc2cccc(C(F)(F)F)c2)c1N`, the figure is inactive: 142%; as for `Cc1cc2c(cc1C)NC(CC(=O)Nc1cccc(Cl)c1)C(=O)N2` (centres undefined), inactive: 98%.
As for `NS(=O)(=O)c1ccc(CCNC(=O)Cn2c(-c3cccs3)cc3ccccc32)cc1`, the figure is inactive: 153%; as for `CCN(CC)c1ccc(NC(=O)CCc2nc3cccnc3n2Cc2cccs2)c(C)c1`, inactive: 73%; as for `O=C(NCC(c1ccc2c(c1)OCO2)N1CCOCC1)C(=O)Nc1ccccc1` (centres undefined), inactive: 88%.
Consider `C=CCc1cccc2cc(C(=O)NCCc3c(C)[nH]c4c(C)cccc34)c(=O)oc12`, for which the survival is inactive: 83%.
Regarding `C=CCN1CCN(C(c2ccccc2)c2nnnn2CCC(C)C)CC1` (centres undefined), the survival is inactive: 99%.
`CNc1ccc(-c2nc(-c3ccco3)no2)cc1[N+](=O)[O-]`: the survival was inactive: 83%.
As to `CC(=O)Oc1cccc(NC(=O)CC2SC(N)=NC2=O)c1` (centres undefined), the survival is inactive: 104%.
As for `Cc1ccccc1NC(=O)c1ccc2c(O)c(S(=O)(=O)c3ccccc3)c(=O)[nH]c2c1`, the survival was inactive: 88%.
With `CCOC(=O)N1CCC(NC(=O)c2cnn(-c3ccc(F)cc3F)c2C2CCN(C(=O)OC(C)(C)C)CC2)CC1` the figure was inactive: 82%; with `CC(C)NC(=O)c1cc(-c2ccccc2)on1`, inactive: 87%; with `Cc1ccc(S(=O)(=O)Nc2cc3c(cc2C)n(C)c(=O)c(=O)n3C)c(C)c1`, inactive: 64%.
With `Cc1cc(C)cc(Nc2cc(C(=O)NC3CCC(C)CC3)c3ccccc3n2)c1` (centres undefined) the figure was inactive: 125%; with `COc1ccc(CCNC(=O)c2c(C)oc3ncnc(N4CCOCC4)c23)c(OC)c1`, inactive: 75%.
Take `O=C(Cn1c(=O)c(C(F)(F)F)nc2ccccc21)Nc1cccc(Br)c1`: the survival was inactive: 124%.
Turning to `CCCN1C(C(=O)c2ccccc2)=C(OC(=O)c2ccc(OC)cc2)c2ccccc2S1(=O)=O`, the survival was inactive: 81%.
Consider `Cn1nnnc1SCCCNCc1ccc(-c2ccc(F)c(Cl)c2)o1`, for which the survival is inactive: 77%.
As for `CCc1nc(-c2cc(S(=O)(=O)N3CCN(c4ccccc4F)CC3)ccc2OC)no1`, the figure is inactive: 77%; as for `CN(Cc1ccc(F)cc1)S(=O)(=O)c1nnc(NC(=O)c2ccccc2Cl)s1`, inactive: 80%.
Consider `Cc1cc(=O)n(CC(=O)NCc2ccc(OC(C)C)cc2)c2c1c(C)nn2-c1cccc(F)c1`, for which the survival was inactive: 73%.
`CCc1ccc(NC(=O)CN2C(=O)CCSc3ccccc32)cc1`: the survival was inactive: 86%.
As for `Cc1ccc(CNC(=O)C2CCCN(S(=O)(=O)c3cn(C)cn3)C2)cc1` (centres undefined), the figure is inactive: 75%.
With `O=C(NCCc1ccccc1)c1ccc(CS(=O)(=O)Cc2ccccc2Cl)o1` the figure was inactive: 79%; with `Cc1cc(C)cc(NS(=O)(=O)c2ccc(N3CCCCS3(=O)=O)cc2)c1`, inactive: 71%.
As for `C=COCCn1c(-c2nonc2N)nc2ccccc21`, the figure is inactive: 113%; as for `CNC(=O)NCCN1CCCC1=O`, inactive: 96%; as for `O=c1c(N2CCc3ccccc3C2)csc2ccc(Cl)cc12`, inactive: 65%.
For `CC(C)Cc1nn2c(=O)cc(COC(=O)c3ccc(NC(=O)CCc4ccccc4)cc3)nc2s1`, the survival is inactive: 73%.
Turning to `Cc1ccc(NC(=O)C(C)Sc2nc(-c3ccccc3)c(C#N)c(=O)[nH]2)c(C)c1` (centres undefined), the survival was inactive: 86%.
For `CCOc1ccc(-c2nnn(CC(=O)NC3CCCCC3)n2)cc1`, the survival is inactive: 94%.
With `O=C(Nc1nnc(S(=O)(=O)N2CCOCC2)s1)c1ccccc1F` the figure was inactive: 93%; with `CCOc1cc(CN2CCN(S(=O)(=O)c3ccc(C)cc3)CC2)ccc1OC`, inactive: 134%; with `COc1ccc(/C=C/C(=O)Nc2sc(C)c(C)c2C(=O)O)cc1`, inactive: 89%.
For the compound `COc1ccc(Nc2c(-c3ccc(N4CCOCC4)cc3)nc3ncccn23)cc1OC`, the survival was inactive: 79%.
In the case of `CC(C)c1cnc2c(c1SCC(=O)N1CCCCC1)c(=O)n(C)c(=O)n2C`, the survival was inactive: 153%.
As for `CCn1c(=O)sc2cc(NS(=O)(=O)c3ccc(C)cc3)ccc21`, the survival is inactive: 71%.
`CC(=O)Nc1ccc(NC(=O)c2ccc3c(c2)NC(=O)c2ccccc2S3)cc1`: the survival was inactive: 138%.
With `CCOC(=O)N1CCc2c(sc3c2c(=O)n(Cc2ccccc2)c(=O)n3CC(=O)Nc2ccc(C)cc2C)C1` the figure was inactive: 90%; with `CCc1ccc2c(c1)NC(c1ccc(C)cc1)=NC(c1cccs1)=N2`, inactive: 64%.
As for `CC(C)(C)C(=O)NC1CCN(CC(=O)N(C2CCCCC2)C2CCCCC2)CC1`, the figure is inactive: 104%; as for `COC(=O)c1cccc2c1NC(c1cccnc1)C1CC=CC21` (centres undefined), inactive: 111%; as for `CCc1ccccc1N(C)C(=O)c1cn(-c2cccc(OC)c2)c(=O)c2ccccc12`, inactive: 76%.
Consider `CCc1ccc(NC(=O)Cn2nnc(C(=O)NCc3ccc(C)cc3)c2N)cc1`, for which the survival was inactive: 69%.
Consider `CC1CC(NS(=O)(=O)c2cccs2)CC(C)(C)C1` (centres undefined), for which the survival was inactive: 106%.
As for `O=S(=O)(c1ccc(Cl)c(Cl)c1)N1CCCCC1`, the survival was inactive: 116%.
With `O=C(Nc1ccc(F)cc1F)C1CCN(S(=O)(=O)c2ccc3[nH]c(=O)ccc3c2)CC1` the figure was inactive: 88%.
In the case of `O=C(CCc1nc2cccnc2n1-c1ccccc1)Nc1ccc(Cl)c(Cl)c1`, the survival is inactive: 66%.
Take `O=C(OCc1ccccc1)Sc1nnc(-c2ccccc2Cl)o1`: the survival was inactive: 78%.
Consider `CC1(C(=O)NC2CCCCC2)Cc2ccccc2C(=O)N1Cc1ccccc1Cl` (centres undefined), for which the survival is inactive: 38%.
With `COc1cc(NC(=O)CCc2nc3cccnc3n2Cc2cccs2)cc(OC)c1OC` the figure was inactive: 83%; with `CCc1ccc(OCc2nc(-c3ccc(OC)c(OC)c3)no2)c(Br)c1`, inactive: 38%.
For the compound `CC(=O)NC1C(=O)N(c2ccccc2)N=C1C` (centres undefined), the survival is inactive: 112%.
As for `CCOc1ccc(C(=O)NCC(c2ccc3c(c2)OCO3)N2CCOCC2)cc1` (centres undefined), the figure is inactive: 49%; as for `CN(C)c1ccc(C2C=C(c3ccccc3)Nc3nnnn32)cc1` (centres undefined), inactive: 66%; as for `CCc1cccc(NC(=O)C2CCCN(c3ncccn3)C2)c1` (centres undefined), inactive: 105%.
In the case of `CC(=O)c1ccc(N2C(=O)N(Cc3ccccc3C#N)c3ccccc3S2(=O)=O)cc1`, the survival is inactive: 81%.
As to `Cc1c(C(=O)Nc2ccc(F)c(Cl)c2)oc2ccc(S(=O)(=O)N(C)C3CCCCC3)cc12`, the survival was inactive: 99%.
As for `Cc1ccc(-n2ncc(C(=O)Nc3ccc4c(c3)OCO4)c2C2CCN(C(=O)OC(C)(C)C)CC2)c(C)c1`, the figure is inactive: 128%.
With `COc1cc(-c2noc(-c3ccc(NCc4ccco4)c([N+](=O)[O-])c3)n2)cc(OC)c1OC` the figure was inactive: 78%; with `Cc1oc2ccc(O)c(CN3CCCCC3)c2c1C(=O)Nc1cccc(C(F)(F)F)c1`, inactive: 69%; with `Cc1cn2c(=O)cc(COc3ccc(NC(=O)c4ccccc4C)cc3)nc2s1`, inactive: 138%.
